B1: cdsA L126Q (protein)
chain: MLKYRLISAFVLIPVVIAALFLLPPVGFAIVTLVVCMLAAWEWGQLSGFTTRSQRVWLAVLCGLLLALMLFLLPEYHRNIHQPLVEISLWASLGWWIVALLLVLFYPGSAAIWRNSKTLRLIFGVQTIVPFFWGMLALRAWHYDENHYSGAIWLLYVMILVWGADSGAYMFGKLFGKHKLAPKVSPGKTWQGFIGGLATAAVISWGYGMWANLDVAPVTLLICSIVAALASVLGDLTESMFKREAGIKDSGHLIPGHGGILDRIDSLTAAVPVFACLLLLVFRTL
B2: cysB L161P (protein)
chain: MKLQQLRYIVEVVNHNLNVSSTAEGLYTSQPGISKQVRMLEDELGIQIFSRSGKHLTQVTPAGQEIIRIAREVLSKVDAIKSVAGEHTWPDKGSLYIATTHTQARYALPNVIKGFIERYPRVSLHMHQGSPTQIADAVSKGNADFAIATEALHLYEDLVMPPCYHWNRAIVVTPDHPLAGKKAITIEELAQYPLVTYTFGFTGRSELDTAFNRAGLTPRIVFTATDADVIKTYVRLGLGVGVIASMAVDPVADPDLVRVDAHDIFSHSTTKIGFRRSTFLRSYMYDFIQRFAPHLTRDVVDAAVALRSNEEIEVMFKDIKLPEK
B3: cysB V240P (protein)
chain: B2 chain with P161L, V240P
B4: ispU L206W (protein)
chain: MMLSATQPLSEKLPAHGCRHVAIIMDGNGRWAKKQGKIRAFGHKAGAKSVRRAVSFAANNGIEALTLYAFSSENWNRPAQEVSALMELFVWALDSEVKSLHRHNVRLRIIGDTSRFNSRLQERIRKSEALTAGNTGLTLNIAANYGGRWDIVQGVRQLAEKVQQGNLQPDQIDEEMLNQHVCMHELAPVDLVIRTGGEHRISNFLWWQIAYAELYFTDVLWPDFDEQDFEGALNAFANRERRFGGTEPGDETA
B5: coaD V116W (protein)
chain: MQKRAIYPGTFDPITNGHIDIVTRATQMFDHVILAIAASPSKKPMFTLEERVALAQQATAHLGNVEVVGFSDLMANFARNQHATVLIRGLRAVADFEYEMQLAHMNRHLMPELESWFLMPSKEWSFISSSLVKEVARHQGDVTHFLPENVHQALMAKLA
B6: coaD F117W (protein)
chain: B5 chain with W116V, F117W
B7: coaD L118W (protein)
chain: B5 chain with W116V, L118W
B8: coaD F117P (protein)
chain: B5 chain with W116V, F117P
B9: coaD F117A (protein)
chain: B5 chain with W116V, F117A
B10: tsaD V131A (protein)
chain: MRVLGIETSCDETGIAIYDDEKGLLANQLYSQVKLHADYGGVVPELASRDHVRKTVPLIQAALKESGLTAKDIDAVAYTAGPGLVGALLVGATVGRSLAFAWDVPAIPVHHMEGHLLAPMLEDNPPEFPFAALLVSGGHTQLISVTGIGQYELLGESIDDAAGEAFDKTAKLLGLDYPGGPLLSKMAAQGTAGRFVFPRPMTDRPGLDFSFSGLKTFAANTIRDNGTDDQTRADIARAFEDAVVDTLMIKCKRALDQTGFKRLVMAGGVSANRTLRAKLAEMMKKRRGEVFYARPEFCTDNGAMIAYAGMVRFKAGATADLGVSVRPRWPLAELPAA
B11: tsaD V131W (protein)
chain: B10 chain with A131W
B12: tyrS V307W (protein)
chain: MASSNLIKQLQERGLVAQVTDEEALAERLAQGPIALYCGFDPTADSLHLGHLVPLLCLKRFQQAGHKPVALVGGATGLIGDPSFKAAERKLNTEETVQEWVDKIRKQVAPFLDFDCGENSAIAANNYDWFGNMNVLTFLRDIGKHFSVNQMINKEAVKQRLNREDQGISFTEFSYNLLQGYDFACLNKQYGVVLQIGGSDQWGNITSGIDLTRRLHQNQVFGLTVPLITKADGTKFGKTEGGAVWLDPKKTSPYKFYQFWINTADADVYRFLKFFTFMSIEEINALEEEDKNSGKAPRAQYVLAEQWTRLVHGEEGLQAAKRITECLFSGSLSALSEADFEQLAQDGVPMVEMEKGADLMQALVDSELQPSRGQARKTIASNAITINGEKQSDPEYFFKEEDRLFGRFTLLRRGKKNYCLICWK
B13: tyrS V307Q (protein)
chain: B12 chain with W307Q
B14: tyrS V307P (protein)
chain: B12 chain with W307P
B15: trmD V152W (protein)
chain: MWIGIISLFPEMFRAITDYGVTGRAVKNGLLSIQSWSPRDFTHDRHRTVDDRPYGGGPGMLMMVQPLRDAIHAAKAAAGEGAKVIYLSPQGRKLDQAGVSELATNQKLILVCGRYEGIDERVIQTEIDEEWSIGDYVLSGGELPAMTLIDSWSRFIPGVLGHEASATEDSFAEGLLDCPHYTRPEVLEGMEVPPVLLSGNHAEIRRWRLKQSLGRTWLRRPELLENLALTEEQARLLAEFKTEHAQQQHKHDGMA
B16: trmD L213W (protein)
chain: B15 chain with W152V, L213W
B17: trmD I71A (protein)
chain: B15 chain with I71A, W152V

Numbering of substitutions follows the chain as printed. Names may count otherwise. ± gives the standard deviation of the averaged measurements. Laboratory Escherichia coli strains with one amino-acid change in an essential protein, pooled on minimal glucose agar with carbenicillin or gentamicin at twice the control MIC (plus kanamycin and chloramphenicol for the plasmids), 48 h. Fold change of barcode share against drug-free plates; higher = less susceptible. Active = above 20 in both replicates (the paper's putatively resistant). '<' = one read or none on drug, '>' = one read or none on a drug-free plate. Shares are relative, so most strains fall below 1 when a few take over. Listed are strains with at least 15 reads on both drug-free plates, and hits; most hits rest on fewer reference reads. Replicate rank correlation about 0.5. Edits are read from barcodes.

For this data set, the target named is Escherichia coli (laboratory strain). The data set is described as follows: barcode share on antibiotic plates over drug-free plates; higher = less susceptible. Conditions: antibiotic: gentamicin; 2× MIC (MIC 0.45 µg/mL). The protocol:
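A pool of E. coli strains, each edited to carry one amino-acid change in an essential protein, was grown for 48 h on minimal glucose agar with or without antibiotic; strain barcodes were sequenced; mean of two replicates.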
As to B1, the “fold change of barcode share” value is less than 0.0206. In the case of B2, the “fold change of barcode share” value was 0.0357 ± 0.028.

B3: the “fold change of barcode share” value was less than 0.00869. As for B4, the “fold change of barcode share” value is less than 0.0184. As to B5, the “fold change of barcode share” value was 0.0286 ± 0.033. As for B6, the “fold change of barcode share” value was determined as 0.291 ± 0.37.

On to B7, for which the “fold change of barcode share” value amounted to 0.0628 ± 0.061.

On to B8, for which the “fold change of barcode share” value is less than 0.0178.

With B9, the “fold change of barcode share” value is less than 0.0113. Regarding B10, the “fold change of barcode share” value is less than 0.0195. Consider B11, for which the “fold change of barcode share” value was less than 0.0156. For the protein B12, the “fold change of barcode share” value is less than 0.00618.

Take B13: the “fold change of barcode share” value is less than 0.01.

Turning to B14, the “fold change of barcode share” value was 0.0192 ± 0.011. With B15, the “fold change of barcode share” value was less than 0.0234. For B16 the value was less than 0.0227.

For the protein B17, the “fold change of barcode share” value was less than 0.0171.

The values above are taken from the supplement of paper PMC11876631.
